{
  "source": "patent US9018252B2",
  "about": "“Stable compositions of dehydroascorbic acid” (priority 2010, dated 2015)",
  "conditions": "human, in vivo, po, 5 min",
  "data": [
    {"smiles": "O=C1O[C@H]([C@@H](O)CO)C(O)=C1O", "note": "[AA, ascorbic acid]", "values": [
      {"measurement": "amount absorbed into the tissues of the mouth and throat", "result": "approximately 13.2%"}
    ]},
    {"smiles": "O=C1O[C@H]([C@@H](O)CO)C(=O)C1=O", "note": "[DHAA, dehydroascorbic acid]", "values": [
      {"measurement": "amount absorbed into the tissues of the mouth and throat", "result": "approximately 14.8%"}
    ]}
  ]
}
